Reference: the supplement of paper PMC12217912
This is one part of the list. The full chains were built here from the parent and the listed change. Values near 0.05 are background.

B1: TEV protease; numbered along this chain (parent)
chain: MGESLFKGPRDYNPISSSICHLTNESDGHTTSLYGIGFGPFIITNKHLFRRNNGTLVVQSLHGVFKVKDTTTLQQHLVDGRDMIIIRMPKDFPPFPQKLKFREPQREERICLVTTNFQTKSMSSMVSDTSCTFPSGDGIFWKHWIQTKDGQCGSPLVSTRDGFIVGIHSASNFTNTNNYFTSVPKNFMELLTNQEAQQWVSGWRLNADSVLWGGHKVFMVKPEEPFQPVKEATQL

Variants of: B1
Test: raw area under fraction-flipped curve 0-4 h after induction (AUC4h, not background-subtracted), DNA-recorder readout of cleavage of the substrate (dimensionless); higher = more cleavage of the substrate by the protease variant
Details: temperature: 34 °C; time window: 0-4 h after rhamnose induction
Description: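 In vivo DNA recorder in E. coli TOP10(DE3) ΔrhaA at 34 °C. Each TEVp single-site mutant (parent TEVp 0) is paired with a single-site variant of the 7-mer TEVs (canonical ENLYFQ|S). The substrate sits between flexible linkers in a Bxb1-sfGFP-TEVs-SsrA fusion, so cleavage stabilises Bxb1 and speeds flipping of a recombination array, read by NGS. The value is the raw area under the fraction-flipped curve over 0-4 h after rhamnose induction (AUC4h), with ≥20 reads per time point. It is not background-subtracted; inactive controls average about 0.047.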
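Further: Bxb1 expression induced with 0.2% (w/v) L-rhamnose at OD600 near 0.5, cultures sampled hourly, flipped fraction per protease–substrate barcode pair counted by paired-end Illumina sequencing.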

Variant	area with substrate EALYFQS	area with substrate ECLYFQS	area with substrate EILYFQS	area with substrate EKLYFQS	area with substrate ELLYFQS	area with substrate ERLYFQS	area with substrate ESLYFQS	area with substrate ETLYFQS	area with substrate EVLYFQS	area with substrate EWLYFQS	area with substrate EDLYFQS	area with substrate EELYFQS	area with substrate EHLYFQS	area with substrate EMLYFQS	area with substrate EQLYFQS	area with substrate EFLYFQS	area with substrate EGLYFQS	area with substrate EPLYFQS	area with substrate EYLYFQS
T114E	0.0903	0.09	0.0996	0.0945	0.0682	0.0825	0.0864	0.0968	0.0819	0.0749	–	–	–	–	–	–	–	–	–
E107I	0.0049	–	0.0882	0.0996	–	–	0.0888	–	0.0948	–	0.0914	0.125	0.083	0.0789	0.103	–	–	–	–
V113F	0.072	0.0918	0.0809	0.102	–	–	–	–	–	0.0685	–	–	–	0.121	0.124	–	–	–	–
V113R	0.0814	–	0.0695	0.0673	0.0632	0.065	0.0748	0.0808	0.0514	–	0.0795	0.0676	0.0287	0.0567	–	0.0625	0.0112	0.0583	–
I110L	0.13	–	0.107	0.104	–	0.126	0.105	–	0.111	0.13	–	0.139	0.168	–	–	–	–	–	0.121
Q118R	0.108	0.134	–	0.0946	–	–	0.084	–	0.113	–	–	–	0.145	0.0932	0.124	0.103	0.0858	0.146	–
Q118P	0.0865	0.111	0.0932	–	–	–	0.107	–	0.0954	0.101	–	–	0.115	–	–	0.0899	0.0864	–	0.0813
Q118I	0.138	0.0914	0.102	–	–	0.121	0.064	–	–	–	–	0.125	–	–	0.108	–	–	0.135	–
Q118K	0.0614	0.0997	–	0.138	–	0.049	0.0704	–	–	0.0641	–	–	–	–	0.0841	–	0.049	0.0605	–
F101L	0.0731	0.0773	0.0567	0.0972	–	–	–	0.113	0.0984	0.0694	–	–	–	0.0825	0.105	0.0733	0.0905	–	–
F101R	0.0323	–	0.0423	0.0499	–	0.0355	0.0467	0.049	0.0489	–	–	–	–	0.0503	–	–	–	0.0327	0.0473
Q75I	0.0906	–	0.0193	–	–	0.0717	0.0847	–	–	0.0861	0.105	–	–	0.0848	0.0913	–	0.0809	0.098	0.0695
S130K	0.11	–	0.0784	0.0946	–	–	0.0875	–	0.0823	–	–	0.121	–	–	–	0.088	0.0792	0.109	0.0777
T71K	0.143	–	–	0.096	0.0873	0.0913	0.119	–	–	–	–	0.112	–	0.128	0.117	–	–	–	–
T71G	0.0805	–	0.0617	–	0.0689	0.0745	0.0854	–	0.0731	0.0661	–	–	0.0607	–	0.1	–	0.0757	0.0694	0.0655
T70K	0.0627	–	0.0529	0.0635	–	–	–	–	–	–	–	–	–	–	–	–	–	–	–
T70P	0.0919	0.0722	–	–	–	0.071	0.0673	–	0.0706	0.0662	–	0.0834	0.0969	–	0.104	–	–	0.0497	–
D82A	0.051	–	–	–	–	–	0.0577	0.0546	0.0534	–	0.0488	0.0485	–	–	–	0.0679	–	–	–
